Assay results taken from PubChem BioAssay AID588855 (National Center for Advancing Translational Sciences (NCATS), 2011).
Hit rate of the full screen: of about 410,000 compounds, about 5,000 (1.2%) were called active. The inconclusive results got no clear call from the source; some entries with a clear call stand among them for comparison. The call rests on the fitted dose curve; in most records, active means well fitted inhibition curve with a large enough effect; inconclusive means small, poorly fitted or top-dose-only effect; inactive means no such curve, though single readings can be large or run the other way. Potencies beside an inconclusive call are fits to weak or partial responses and may not hold up.

Test: qHTS for Inhibitors of TGF-b; further: nearly all actives have a fitted effect of over 65% in size
Conditions: HepG2 CAGA-GFP TGF-b/SMAD3 reporter, GFP fluorescence, 18 h, TGF-beta stimulated, 500 pg/mL final; series mostly up to 46.1 µM
In short: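 HEPG2 CAGA-GFP cells (1000/well, DMEM with 1% FBS) were pre-incubated 2 h at 37 degrees C, given compound by pin tool, then stimulated with TGF-beta at 500 pg/mL final for 18 h before per-cell GFP fluorescence imaging.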
Potency means the concentration at half of the fitted maximal effect; tags describe the fitted curve by direction and shape.

SMILES	Potency
O=S(=O)(c1ccc2ccccc2c1)N1CCN(C(=S)Nc2ccccc2F)CC1	inconclusive: 25.1 µM [inhibitor, single point]
CCCc1cc(=O)[nH]c(SCCCCN2C(=O)c3ccccc3C2=O)n1	inactive
O=c1cc(C(F)(F)F)[nH]c2c(OC(F)(F)F)cccc12	inconclusive: 12.6 µM [inhibitor, partial curve, poor fit]
O=C(CSc1nnc(-c2ccncc2)o1)Nc1ccccc1Cl	inconclusive: 3.55 µM [inhibitor, partial curve]
CC(=O)Nc1ccc(NC2=C(Cl)C(=O)c3ccccc3C2=O)cc1	active: 3.55 µM
Cc1nnc(N2C(=O)c3cccc4c([N+](=O)[O-])ccc(c34)C2=O)s1	inconclusive: 22.4 µM [inhibitor, single point]
COC(=O)NCC(c1ccc2c(c1)OCO2)N1CCN(c2ccc(OC)cc2)CC1 (centres undefined)	inactive
O=C(NCc1ccc(CNC(=O)c2ccco2)cc1)c1ccco1	inactive
COc1ccc(NC(=O)Nc2cc(C)ccn2)cc1	inactive
Cc1cc(F)c(F)c(C(=O)N2C(C)CCCC2C)c1Cl (centres undefined)	inactive
CC(=O)c1ccc(N(C(=O)CNC(=O)c2ccco2)C(C(=O)NC2CCCC2)c2cccnc2)cc1 (centres undefined)	inconclusive: 6.31 µM [inhibitor, single point]
O=C(CN1C(=O)COc2ccc(S(=O)(=O)NC3CCCC3)cc21)Nc1ccc(Cl)cc1	inconclusive: 22.4 µM [inhibitor, partial curve, poor fit]
CCOc1ccc(NC(=O)c2cc3ccccc3cc2OC)cc1	inactive
CN(C)/C=N/c1cc(=O)[nH]c(=O)n1C	inconclusive: 11.2 µM [inhibitor, single point]
O=C(c1ccc2c(c1)OCO2)N1CCC2(CC1)Oc1ccc(F)cc1C(=O)C21CC(c2cccnc2)=NO1 (centres undefined)	inconclusive: 15.8 µM [inhibitor, single point]
Cc1ccc(Cl)c2c1NC(=O)C2(O)CC(=O)c1ccc(Br)cc1 (centres undefined)	inactive
O=C(ONC(=O)C1C2C=CC(C2)C1C(=O)NOC(=O)c1ccccc1)c1ccccc1 (centres undefined)	inactive
Cc1c(NC(=O)CSc2ncn[nH]2)c(=O)n(-c2ccccc2)n1C	inconclusive: 15.8 µM [inhibitor, single point]
Cc1ccc(NC(=S)N(Cc2ccco2)C(C)c2cccs2)c(Cl)c1 (centres undefined)	inconclusive: 35.5 µM [inhibitor, single point]
O=C1NCC2=C1C(c1ccc(Br)cc1)Nc1ccccc1N2 (centres undefined)	inactive
O=C(CSCc1ccc(Cl)cc1)N1CCOCC1	inactive
COc1ccc2cc(C(=O)C3CCCN(C(=O)c4cnn(C(C)C)c4)C3)ccc2c1 (centres undefined)	inactive

SMILES	Potency
C=C(C)Cn1c2ccc(NC(=S)NCc3ccccc3F)cc2c(=O)n1C	inactive
O=S(=O)(c1cccs1)N1CCN(c2ccnc3cc(Cl)ccc23)CC1	inconclusive: 25.1 µM [inhibitor, single point]
C=C(C)COc1ccc2c(C)c(C)c(=O)oc2c1OCC(=C)C	inconclusive: 2.51 µM [inhibitor, full curve, poor fit]
COCCCNC(=O)C[C@H]1C[C@H](C(=O)N(C(C)C)C(C)C)[C@@]2(C)c3[nH]c4cc(-c5ccco5)ccc4c3CCN2C1=O	active: 11.2 µM
CCOc1ccc(CN2CCN(Cc3cc4ccccc4[nH]3)CC2CCO)cc1 (centres undefined)	inconclusive: 25.1 µM [inhibitor, single point]
O=S(=O)(c1ccc(Cl)cc1)c1nc(-c2ccccc2F)oc1NCCN1CCOCC1	inconclusive: 25.1 µM [inhibitor, single point]
COc1ccccc1C(CC(=O)Nc1ccc(C)c(C)c1)c1ccc(OC(C)C)cc1 (centres undefined)	inconclusive: 4.47 µM [inhibitor, full curve, poor fit]
COc1ccc(F)cc1S(=O)(=O)NCC(c1ccco1)N1CCc2ccccc2C1 (centres undefined)	inconclusive: 12.6 µM [inhibitor, single point]
Cc1ccc(-n2nc3c(N4CCC(C(=O)N5CCCCCC5)CC4)nnc(C)c3c2C)cc1	inconclusive: 14.1 µM [inhibitor, partial curve, poor fit]
Cc1oc(-c2ccc(Cl)cc2)nc1CS(=O)CC(=O)NCCCN1CCOCC1 (centres undefined)	inconclusive: 35.5 µM [inhibitor, single point]
CC(=O)Nc1ccc(Nc2nc(C)c([N+](=O)[O-])c(Nc3ccccc3)n2)cc1	inactive
Cc1ccc(C(OCC(O)CNC(CO)C(O)c2ccc([N+](=O)[O-])cc2)c2ccccc2)cc1 (centres undefined)	inconclusive: 35.5 µM [inhibitor, single point]
CCOC(=O)C(O)(NC(=O)c1cccnc1)C(F)(F)F (centres undefined)	inactive
COc1cc(NC(=O)CSc2nc(-c3ccco3)cc(C(F)(F)F)n2)cc(OC)c1OC	inconclusive: 2.82 µM [inhibitor, single point]
COc1ccc(C2c3[nH]c4ccccc4c3CCN2C(=O)c2ccccc2C(C)=O)c(F)c1 (centres undefined)	inconclusive: 35.5 µM [inhibitor, single point]
Cc1nc(N2CCC3(CC2)OCCO3)c2nnn(Cc3ccccc3F)c2n1	inconclusive: 3.55 µM [inhibitor, partial curve, poor fit]
COC(=O)c1[nH]c2ccc(F)cc2c1NS(=O)(=O)c1ccc(OC)cc1OC	inconclusive: 0.794 µM [inhibitor, full curve, poor fit]
CCC(C)n1c(NC(=O)c2ccccc2)c(C#N)c2nc3ccccc3nc21 (centres undefined)	inconclusive: 17.8 µM [inhibitor, single point]
Cc1ccc(SCc2ccc(C(=O)Nc3cccnc3)cc2)cc1	inactive
C=CCc1cccc(CNc2cnc3ccccc3c2)c1O	inconclusive: 12.6 µM [inhibitor, partial curve]
Cc1c2cnccc2c(C)c2c1c1ccccc1n2CCOC(=O)c1ccccc1	inconclusive: 35.5 µM [inhibitor, single point]
CCC[C@@H]1CCCO[C@@](C(=O)NCc2ccccn2)(C(F)(F)F)C1	inconclusive: 35.5 µM [inhibitor, single point]
